{"source": "the supplement of paper PMC8728848", "binders": {"B1": {"name": "DC-ASGPR L+GEE (Homo sapiens) (protein)", "chain": "MTRTYENFQYLENKVKVQGFKNGPLPLQSLLQRLRSGPCHLLLSLGLGLLLLVIICVVGFQNSKFQRDLVTLRTDFSNFTSNTVAEIQALTSQGSSLEETIASLKAEVEGFKQERQAGVSELQEHTTQKAHLGHCPHCPSVCVPVHSEMLLRVQQLVQDLKKLTCQVATLNNNGEEASTEGTCCPVNWVEHQDSCYWFSHSGMSWAEAEKYCQLKNAHLVVINSREEQNFVQKYLGSAYTWMGLSDPEGAWKWVDGTDYATGFQNWKPGQPDDWQGHGLGGGEDCAHFHPDGRWNDDVCQRPYHWVCEAGLGQTSQESH"}}, "assay_in_all_cases": "glycan array binding signal (z-score within array); higher = stronger binding", "details_in_all_cases": "glycan notation: IUPAC condensed, linker removed", "key": {"[1]": {"biological_target": "Fuc(a1-2)[Gal(a1-3)]Gal(b1-4)GlcNAc(b1-2)Man(a1-3)[Fuc(a1-2)[Gal(a1-3)]Gal(b1-4)GlcNAc(b1-2)Man(a1-6)]Man(b1-4)GlcNAc(b1-4)GlcNAc", "how_it_was_run": "(§1)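 From the Consortium for Functional Glycomics database, 3228 arrays were curated, keeping only those whose protein sequence was available. Binding is given as a within-array Z-score averaged across arrays sharing a protein sequence and across linkers. Negative Z-scores can be read as non-binding.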"}, "[2]": {"biological_target": "Fuc(a1-2)[Gal(a1-3)]Gal(b1-4)GlcNAc(b1-2)Man(a1-3)[Fuc(a1-2)[Gal(a1-3)]Gal(b1-4)GlcNAc(b1-2)Man(a1-6)]Man(b1-4)GlcNAc(b1-4)[Fuc(a1-6)]GlcNAc", "how_it_was_run": "as §1"}, "[3]": {"biological_target": "Fuc(a1-2)[Gal(a1-3)]Gal(b1-4)GlcNAc(b1-3)GalNAc", "how_it_was_run": "as §1"}, "[4]": {"biological_target": "Fuc(a1-2)[Gal(a1-3)]Gal(b1-4)GlcNAc(b1-3)[Fuc(a1-2)[Gal(a1-3)]Gal(b1-4)GlcNAc(b1-6)]GalNAc", "how_it_was_run": "as §1"}, "[5]": {"biological_target": "Fuc(a1-2)[Gal(a1-3)]Gal(b1-4)GlcNAc(b1-6)GalNAc", "how_it_was_run": "as §1"}, "[6]": {"biological_target": "Fuc(a1-2)[Gal(a1-3)]Gal(b1-4)[Fuc(a1-3)]Glc", "how_it_was_run": "as §1"}, "[7]": {"biological_target": "Fuc(a1-2)[Gal(a1-3)]Gal(b1-4)[Fuc(a1-3)]GlcNAc", "how_it_was_run": "as §1"}, "[8]": {"biological_target": "Fuc(a1-2)[Gal(a1-3)]Gal(b1-4)[Fuc(a1-3)]GlcNAc(b1-3)GalNAc", "how_it_was_run": "as §1"}, "[9]": {"biological_target": "Fuc(a1-2)[Gal(a1-4)]Gal(b1-4)GlcNAc", "how_it_was_run": "as §1"}, "[10]": {"biological_target": "Fuc(a1-2)[GalNAc(a1-3)]Gal", "how_it_was_run": "as §1"}, "[11]": {"biological_target": "Fuc(a1-2)[GalNAc(a1-3)]Gal(b1-3)GalNAc(a1-3)[Fuc(a1-2)]Gal(b1-4)GlcNAc", "how_it_was_run": "as §1"}, "[12]": {"biological_target": "Fuc(a1-2)[GalNAc(a1-3)]Gal(b1-3)GalNAc(b1-3)Gal(a1-4)Gal(b1-4)Glc", "how_it_was_run": "as §1"}, "[13]": {"biological_target": "Fuc(a1-2)[GalNAc(a1-3)]Gal(b1-3)GlcNAc", "how_it_was_run": "as §1"}, "[14]": {"biological_target": "Fuc(a1-2)[GalNAc(a1-3)]Gal(b1-3)GlcNAc(b1-2)Man(a1-3)[Fuc(a1-2)[GalNAc(a1-3)]Gal(b1-3)GlcNAc(b1-2)Man(a1-6)]Man(b1-4)GlcNAc(b1-4)GlcNAc", "how_it_was_run": "as §1"}, "[15]": {"biological_target": "Fuc(a1-2)[GalNAc(a1-3)]Gal(b1-3)GlcNAc(b1-2)Man(a1-3)[Fuc(a1-2)[GalNAc(a1-3)]Gal(b1-3)GlcNAc(b1-2)Man(a1-6)]Man(b1-4)GlcNAc(b1-4)[Fuc(a1-6)]GlcNAc", "how_it_was_run": "as §1"}, "[16]": {"biological_target": "Fuc(a1-2)[GalNAc(a1-3)]Gal(b1-3)GlcNAc(b1-3)GalNAc", "how_it_was_run": "as §1"}, "[17]": {"biological_target": "Fuc(a1-2)[GalNAc(a1-3)]Gal(b1-3)GlcNAc(b1-6)GalNAc", "how_it_was_run": "as §1"}, "[18]": {"biological_target": "Fuc(a1-2)[GalNAc(a1-3)]Gal(b1-4)Glc", "how_it_was_run": "as §1"}, "[19]": {"biological_target": "Fuc(a1-2)[GalNAc(a1-3)]Gal(b1-4)GlcNAc", "how_it_was_run": "as §1"}, "[20]": {"biological_target": "Fuc(a1-2)[GalNAc(a1-3)]Gal(b1-4)GlcNAc(b1-2)Man", "how_it_was_run": "as §1"}, "[21]": {"biological_target": "Fuc(a1-2)[GalNAc(a1-3)]Gal(b1-4)GlcNAc(b1-2)Man(a1-3)[Fuc(a1-2)[GalNAc(a1-3)]Gal(b1-4)GlcNAc(b1-2)Man(a1-6)]Man(b1-4)GlcNAc(b1-4)GlcNAc", "how_it_was_run": "as §1"}, "[22]": {"biological_target": "Fuc(a1-2)[GalNAc(a1-3)]Gal(b1-4)GlcNAc(b1-2)Man(a1-3)[Fuc(a1-2)[GalNAc(a1-3)]Gal(b1-4)GlcNAc(b1-2)Man(a1-6)]Man(b1-4)GlcNAc(b1-4)[Fuc(a1-6)]GlcNAc", "how_it_was_run": "as §1"}, "[23]": {"biological_target": "Fuc(a1-2)[GalNAc(a1-3)]Gal(b1-4)GlcNAc(b1-3)Gal(b1-4)GlcNAc", "how_it_was_run": "as §1"}, "[24]": {"biological_target": "Fuc(a1-2)[GalNAc(a1-3)]Gal(b1-4)GlcNAc(b1-3)Gal(b1-4)GlcNAc(b1-3)Gal(b1-4)GlcNAc", "how_it_was_run": "as §1"}, "[25]": {"biological_target": "Fuc(a1-2)[GalNAc(a1-3)]Gal(b1-4)GlcNAc(b1-3)GalNAc", "how_it_was_run": "as §1"}, "[26]": {"biological_target": "Fuc(a1-2)[GalNAc(a1-3)]Gal(b1-4)GlcNAc(b1-3)[Fuc(a1-2)[GalNAc(a1-3)]Gal(b1-4)GlcNAc(b1-6)]GalNAc", "how_it_was_run": "as §1"}, "[27]": {"biological_target": "Fuc(a1-2)[GalNAc(a1-3)]Gal(b1-4)GlcNAc(b1-6)GalNAc", "how_it_was_run": "as §1"}, "[28]": {"biological_target": "Fuc(a1-2)[GalNAc(a1-3)]Gal(b1-4)[Fuc(a1-3)]GlcNAc", "how_it_was_run": "as §1"}, "[29]": {"biological_target": "Fuc(a1-2)[GalNAc(a1-3)]Gal(b1-4)[Fuc(a1-3)]GlcNAc(b1-3)GalNAc", "how_it_was_run": "as §1"}, "[30]": {"biological_target": "Fuc(a1-2)[GalNAc(a1-4)]Gal(b1-4)GlcNAc", "how_it_was_run": "as §1"}, "[31]": {"biological_target": "Fuc(a1-2)[GalNAc(b1-3)]Gal", "how_it_was_run": "as §1"}, "Fuc(a1-3)GlcNAc": {"biological_target": "Fuc(a1-3)GlcNAc", "how_it_was_run": "as §1"}, "[32]": {"biological_target": "Fuc(a1-3)[Gal(b1-4)]Glc6S", "how_it_was_run": "as §1"}, "[33]": {"biological_target": "Fuc(a1-3)[Gal(b1-4)]GlcNAc", "how_it_was_run": "as §1"}, "[34]": {"biological_target": "Fuc(a1-3)[Gal(b1-4)]GlcNAc(b1-2)Man", "how_it_was_run": "as §1"}, "[35]": {"biological_target": "Fuc(a1-3)[Gal(b1-4)]GlcNAc(b1-2)Man(a1-3)[Fuc(a1-3)[Gal(b1-4)]GlcNAc(b1-2)Man(a1-6)]Man(b1-4)GlcNAc(b1-4)GlcNAc", "how_it_was_run": "as §1"}, "[36]": {"biological_target": "Fuc(a1-3)[Gal(b1-4)]GlcNAc(b1-2)Man(a1-3)[Fuc(a1-3)[Gal(b1-4)]GlcNAc(b1-2)Man(a1-6)]Man(b1-4)GlcNAc(b1-4)[Fuc(a1-6)]GlcNAc", "how_it_was_run": "as §1"}}, "note": "The other results are listed elsewhere or left out."}
{"binder": "B1", "values": [{"measurement": "glycan array binding signal (z-score)", "setting": "[1]", "result": -0.117}, {"measurement": "glycan array binding signal (z-score)", "setting": "[2]", "result": -0.55}, {"measurement": "glycan array binding signal (z-score)", "setting": "[3]", "result": -0.186}, {"measurement": "glycan array binding signal (z-score)", "setting": "[4]", "result": -0.209}, {"measurement": "glycan array binding signal (z-score)", "setting": "[5]", "result": -0.492}, {"measurement": "glycan array binding signal (z-score)", "setting": "[6]", "result": -0.25}, {"measurement": "glycan array binding signal (z-score)", "setting": "[7]", "result": -0.011}, {"measurement": "glycan array binding signal (z-score)", "setting": "[8]", "result": -0.328}, {"measurement": "glycan array binding signal (z-score)", "setting": "[9]", "result": -0.403}, {"measurement": "glycan array binding signal (z-score)", "setting": "[10]", "result": 0.708}, {"measurement": "glycan array binding signal (z-score)", "setting": "[11]", "result": 0.525}, {"measurement": "glycan array binding signal (z-score)", "setting": "[12]", "result": -0.233}, {"measurement": "glycan array binding signal (z-score)", "setting": "[13]", "result": 0.993}, {"measurement": "glycan array binding signal (z-score)", "setting": "[14]", "result": 1.19}, {"measurement": "glycan array binding signal (z-score)", "setting": "[15]", "result": 0.89}, {"measurement": "glycan array binding signal (z-score)", "setting": "[16]", "result": 0.253}, {"measurement": "glycan array binding signal (z-score)", "setting": "[17]", "result": 1.35}, {"measurement": "glycan array binding signal (z-score)", "setting": "[18]", "result": 1.44}, {"measurement": "glycan array binding signal (z-score)", "setting": "[19]", "result": 0.538}, {"measurement": "glycan array binding signal (z-score)", "setting": "[20]", "result": 0.54}, {"measurement": "glycan array binding signal (z-score)", "setting": "[21]", "result": 1.08}, {"measurement": "glycan array binding signal (z-score)", "setting": "[22]", "result": 0.775}, {"measurement": "glycan array binding signal (z-score)", "setting": "[23]", "result": -0.799}, {"measurement": "glycan array binding signal (z-score)", "setting": "[24]", "result": -0.097}, {"measurement": "glycan array binding signal (z-score)", "setting": "[25]", "result": -0.176}, {"measurement": "glycan array binding signal (z-score)", "setting": "[26]", "result": 1.6}, {"measurement": "glycan array binding signal (z-score)", "setting": "[27]", "result": 3.41}, {"measurement": "glycan array binding signal (z-score)", "setting": "[28]", "result": -0.079}, {"measurement": "glycan array binding signal (z-score)", "setting": "[29]", "result": -0.572}, {"measurement": "glycan array binding signal (z-score)", "setting": "[30]", "result": 2.59}, {"measurement": "glycan array binding signal (z-score)", "setting": "[31]", "result": 3.61}, {"measurement": "glycan array binding signal (z-score)", "setting": "Fuc(a1-3)GlcNAc", "result": -0.476}, {"measurement": "glycan array binding signal (z-score)", "setting": "[32]", "result": -0.597}, {"measurement": "glycan array binding signal (z-score)", "setting": "[33]", "result": -0.165}, {"measurement": "glycan array binding signal (z-score)", "setting": "[34]", "result": -0.482}, {"measurement": "glycan array binding signal (z-score)", "setting": "[35]", "result": -0.506}, {"measurement": "glycan array binding signal (z-score)", "setting": "[36]", "result": -0.226}]}
